Laboratory results as given in the supplement of paper PMC10126150.
Sequences with one replicate were seen in a single cluster, so their values are uncertain.

Test system: ATP
Experiment: switch fluorescence ratio, 500 uM ATP over buffer (Cy3 cluster intensity, sum of 5 cycles each) (fold (ratio)); higher = stronger signal-on switching upon ATP binding; sequences stand for … in TCGTCGGCAGCGTCAGATGTGTATAAGAGACAGTTTTTTTTTTTTTTTTTTTTTTTTT…TC
Conditions: aptamer strand: ATP DNA aptamer (quencher-CACCTGGGGGAGTATTGCGGAGGAAGG + anchor), 100 nM annealed; ATP concentration: 500 uM; one replicate
Procedure, shortened: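 Cy3-labelled switching-strand clusters on a modified Illumina MiSeq flow-cell were annealed to 100 nM quencher-labelled ATP aptamer and imaged first in selection buffer, then after 15 min with 500 uM ATP at 22 °C. NaOH stripping and re-annealing separated each of five buffer/ATP cycles, and clusters outside 100-1000 RFU were excluded. The fluorescence ratio sums target-cycle Cy3 intensity over buffer-cycle Cy3 intensity per cluster and averages it per switch-domain sequence.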
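Note: ATP exposure 15 min at 22 °C before imaging.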

Q: ACCGTAGATA was tested. Which switch fluorescence ratio did it give?
A: Its switch fluorescence ratio is 1.11.

Q: For GACTGGAATT, which switch fluorescence ratio is on record?
A: Its switch fluorescence ratio is 0.961.

Q: CTGATTCGC was tested. Which switch fluorescence ratio did it give?
A: Its switch fluorescence ratio is 1.11.

Q: How did the switch fluorescence ratio turn out when GACTGCCTCT was run?
A: The switch fluorescence ratio was 0.974.

Q: For AAATGGAAGA, which switch fluorescence ratio is on record?
A: Its switch fluorescence ratio is 0.996.

Q: Which switch fluorescence ratio does the source give for TTAGGTTA here?
A: Its switch fluorescence ratio is 0.981.

Q: Which switch fluorescence ratio does the source give for ATGCTCTTCC here?
A: Its switch fluorescence ratio is 1.83.

Q: TCAAGCCAT was tested. Which switch fluorescence ratio did it give?
A: The switch fluorescence ratio was 1.01.

Q: For GGCCAGGATT, which switch fluorescence ratio is on record?
A: The switch fluorescence ratio was 0.995.

Q: How did the switch fluorescence ratio turn out when CCCACGAAGT was run?
A: Its switch fluorescence ratio is 1.04.

Q: With TTTTCCCTGT as the sequence, how does the switch fluorescence ratio read?
A: The switch fluorescence ratio was 1.06.

Q: How did the switch fluorescence ratio turn out when TGAGGATTTC was run?
A: Its switch fluorescence ratio is 0.949.

Q: How did the switch fluorescence ratio turn out when TTCGAAGTG was run?
A: The switch fluorescence ratio was 0.972.

Q: For TTACTGCTTC, which switch fluorescence ratio is on record?
A: The switch fluorescence ratio was 0.969.

Q: How did the switch fluorescence ratio turn out when ATAACCTCAG was run?
A: Its switch fluorescence ratio is 1.07.

Q: With GGAATTTCAG as the sequence, how does the switch fluorescence ratio read?
A: The switch fluorescence ratio was 1.04.

Q: With CGCAGGCTGG as the sequence, how does the switch fluorescence ratio read?
A: The switch fluorescence ratio was 0.946.

Q: How did the switch fluorescence ratio turn out when CGGCCAATGG was run?
A: The switch fluorescence ratio was 1.03.

Q: For GGCAAATCCG, which switch fluorescence ratio is on record?
A: The switch fluorescence ratio was 0.992.

Q: For CAGGCATTTA, which switch fluorescence ratio is on record?
A: Its switch fluorescence ratio is 1.03.

Q: Which switch fluorescence ratio does the source give for ATGTCAAGTC here?
A: Its switch fluorescence ratio is 1.04.

Q: For GGGGCAGCGG, which switch fluorescence ratio is on record?
A: Its switch fluorescence ratio is 1.01.

Q: Which switch fluorescence ratio does the source give for GTGAGGCAGC here?
A: The switch fluorescence ratio was 0.938.

Q: AGTCTGCATC was tested. Which switch fluorescence ratio did it give?
A: The switch fluorescence ratio was 1.48.

Q: With TCAGACTATC as the sequence, how does the switch fluorescence ratio read?
A: Its switch fluorescence ratio is 0.978.

Q: With AACCCTTATG as the sequence, how does the switch fluorescence ratio read?
A: The switch fluorescence ratio was 1.04.

Q: Which switch fluorescence ratio does the source give for GCCTGTCGCA here?
A: Its switch fluorescence ratio is 1.05.

Q: With ACATTAATTA as the sequence, how does the switch fluorescence ratio read?
A: The switch fluorescence ratio was 1.07.

Q: With GGTTCGGGTT as the sequence, how does the switch fluorescence ratio read?
A: Its switch fluorescence ratio is 0.945.

Q: With GTTTCTCAAA as the sequence, how does the switch fluorescence ratio read?
A: The switch fluorescence ratio was 1.02.

Q: For AGTTAGCGTT, which switch fluorescence ratio is on record?
A: The switch fluorescence ratio was 0.964.

Q: How did the switch fluorescence ratio turn out when AGAATTGATG was run?
A: Its switch fluorescence ratio is 0.976.

Q: Which switch fluorescence ratio does the source give for CAATCCACG here?
A: Its switch fluorescence ratio is 1.05.

Q: With AAGTCTATAC as the sequence, how does the switch fluorescence ratio read?
A: The switch fluorescence ratio was 1.59.

Q: Which switch fluorescence ratio does the source give for AATATATGAC here?
A: The switch fluorescence ratio was 1.04.

Q: For ATATAATTG, which switch fluorescence ratio is on record?
A: The switch fluorescence ratio was 1.05.

Q: Which switch fluorescence ratio does the source give for TGTGCCGACG here?
A: Its switch fluorescence ratio is 1.07.

Q: With GATACTTTC as the sequence, how does the switch fluorescence ratio read?
A: Its switch fluorescence ratio is 1.02.

Q: How did the switch fluorescence ratio turn out when AGAGCTTGT was run?
A: Its switch fluorescence ratio is 1.03.

Q: With AGTCTAGAAC as the sequence, how does the switch fluorescence ratio read?
A: The switch fluorescence ratio was 1.01.

Q: How did the switch fluorescence ratio turn out when GCAGGGTTT was run?
A: Its switch fluorescence ratio is 0.977.

Q: GTGAGTTCCG was tested. Which switch fluorescence ratio did it give?
A: Its switch fluorescence ratio is 0.998.

Q: For AATTACCGTT, which switch fluorescence ratio is on record?
A: The switch fluorescence ratio was 1.03.

Q: Which switch fluorescence ratio does the source give for TTTTCGTTGG here?
A: The switch fluorescence ratio was 1.01.

Q: Which switch fluorescence ratio does the source give for CCTTACTTCG here?
A: The switch fluorescence ratio was 3.42.

Q: How did the switch fluorescence ratio turn out when CCGCCGGGCA was run?
A: Its switch fluorescence ratio is 1.16.

Q: Which switch fluorescence ratio does the source give for GGGTTACTGC here?
A: Its switch fluorescence ratio is 1.

Q: For GCTTACGCCC, which switch fluorescence ratio is on record?
A: Its switch fluorescence ratio is 1.02.

Q: How did the switch fluorescence ratio turn out when TGTGACAACG was run?
A: The switch fluorescence ratio was 0.984.

Q: CACATCAATA was tested. Which switch fluorescence ratio did it give?
A: The switch fluorescence ratio was 1.06.

Q: TTTACCTCCA was tested. Which switch fluorescence ratio did it give?
A: Its switch fluorescence ratio is 1.1.

Q: TAGGTCAGTG was tested. Which switch fluorescence ratio did it give?
A: Its switch fluorescence ratio is 1.05.

Q: With AAAGTTGATG as the sequence, how does the switch fluorescence ratio read?
A: The switch fluorescence ratio was 0.994.

Q: For CGATAGTGCA, which switch fluorescence ratio is on record?
A: The switch fluorescence ratio was 1.

Q: For TATGCAACGC, which switch fluorescence ratio is on record?
A: The switch fluorescence ratio was 1.14.

Q: Which switch fluorescence ratio does the source give for TGATCGCGAC here?
A: The switch fluorescence ratio was 1.05.

Q: Which switch fluorescence ratio does the source give for TCTGTGAAAC here?
A: The switch fluorescence ratio was 1.03.

Q: How did the switch fluorescence ratio turn out when AGAATGCGGA was run?
A: Its switch fluorescence ratio is 1.05.

Q: Which switch fluorescence ratio does the source give for CCGGGATATT here?
A: Its switch fluorescence ratio is 1.31.

Q: How did the switch fluorescence ratio turn out when GGACCGCTAG was run?
A: Its switch fluorescence ratio is 1.03.

Q: With TCCGGTAGGT as the sequence, how does the switch fluorescence ratio read?
A: Its switch fluorescence ratio is 0.958.

Q: For GAAAGCTGTT, which switch fluorescence ratio is on record?
A: Its switch fluorescence ratio is 0.936.

Q: ACGCTTCCTC was tested. Which switch fluorescence ratio did it give?
A: Its switch fluorescence ratio is 2.83.

Q: CCTCGATTAA was tested. Which switch fluorescence ratio did it give?
A: The switch fluorescence ratio was 1.06.

Q: TGCTATAGTC was tested. Which switch fluorescence ratio did it give?
A: Its switch fluorescence ratio is 1.08.

Q: Which switch fluorescence ratio does the source give for TTGGATATGA here?
A: Its switch fluorescence ratio is 1.02.

Q: With ATGATACTTG as the sequence, how does the switch fluorescence ratio read?
A: Its switch fluorescence ratio is 1.

Q: With TTATGCCTCT as the sequence, how does the switch fluorescence ratio read?
A: The switch fluorescence ratio was 1.

Q: How did the switch fluorescence ratio turn out when GGAAACTGTG was run?
A: Its switch fluorescence ratio is 0.968.

Q: For CATTGCAATA, which switch fluorescence ratio is on record?
A: The switch fluorescence ratio was 4.3.

Q: CAATAACGT was tested. Which switch fluorescence ratio did it give?
A: Its switch fluorescence ratio is 1.01.

Q: With TGGCGTAAAT as the sequence, how does the switch fluorescence ratio read?
A: The switch fluorescence ratio was 0.989.

Q: How did the switch fluorescence ratio turn out when TGGGTTGCCA was run?
A: Its switch fluorescence ratio is 0.96.

Q: How did the switch fluorescence ratio turn out when GGGGGCTTGC was run?
A: The switch fluorescence ratio was 0.986.

Q: ACCCCAGACT was tested. Which switch fluorescence ratio did it give?
A: The switch fluorescence ratio was 1.1.

Q: Which switch fluorescence ratio does the source give for TGTTATACAA here?
A: The switch fluorescence ratio was 1.03.

Q: For AAAATCAAA, which switch fluorescence ratio is on record?
A: Its switch fluorescence ratio is 0.981.

Q: How did the switch fluorescence ratio turn out when TAGATTGTCG was run?
A: Its switch fluorescence ratio is 0.966.

Q: How did the switch fluorescence ratio turn out when TTTATCAGC was run?
A: Its switch fluorescence ratio is 1.06.

Q: How did the switch fluorescence ratio turn out when TGACTAGCT was run?
A: Its switch fluorescence ratio is 1.16.

Q: For GGTTCGGTCA, which switch fluorescence ratio is on record?
A: The switch fluorescence ratio was 0.981.

Q: Which switch fluorescence ratio does the source give for TCGTGTACCT here?
A: The switch fluorescence ratio was 1.09.

Q: For ACTCTAACGG, which switch fluorescence ratio is on record?
A: Its switch fluorescence ratio is 1.18.

Q: With CTTGAGCGAT as the sequence, how does the switch fluorescence ratio read?
A: The switch fluorescence ratio was 1.52.

Q: How did the switch fluorescence ratio turn out when GAACTATGGT was run?
A: The switch fluorescence ratio was 1.15.
